Experimental data as given in PMC6919601, “Identification of Plasmodium dipeptidyl aminopeptidase allosteric inhibitors by high throughput screening” (PLoS ONE, 2019).
Where “and” joins values, the source holds several entries; their conditions need not be identical. Equal entries are not always repeated. Out of some 110,000 compounds screened, about 230 (0.21%) showed an effect of 50% or more. The list shows a part of the results.

Target: DPAP1 (Plasmodium falciparum, UniProt Q8IIJ9)
Assay: primary screen, percent inhibition; read by cleavage of a fluorogenic dipeptide substrate; higher = more effect of the substance
Set-up: species or system P. falciparum D10 trophozoite lysates; single well
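Also: 30 min substrate incubation versus DMSO and 10 µM JCP410 controls.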

Chain of DPAP1 (Q8IIJ9 whole entry, looked up): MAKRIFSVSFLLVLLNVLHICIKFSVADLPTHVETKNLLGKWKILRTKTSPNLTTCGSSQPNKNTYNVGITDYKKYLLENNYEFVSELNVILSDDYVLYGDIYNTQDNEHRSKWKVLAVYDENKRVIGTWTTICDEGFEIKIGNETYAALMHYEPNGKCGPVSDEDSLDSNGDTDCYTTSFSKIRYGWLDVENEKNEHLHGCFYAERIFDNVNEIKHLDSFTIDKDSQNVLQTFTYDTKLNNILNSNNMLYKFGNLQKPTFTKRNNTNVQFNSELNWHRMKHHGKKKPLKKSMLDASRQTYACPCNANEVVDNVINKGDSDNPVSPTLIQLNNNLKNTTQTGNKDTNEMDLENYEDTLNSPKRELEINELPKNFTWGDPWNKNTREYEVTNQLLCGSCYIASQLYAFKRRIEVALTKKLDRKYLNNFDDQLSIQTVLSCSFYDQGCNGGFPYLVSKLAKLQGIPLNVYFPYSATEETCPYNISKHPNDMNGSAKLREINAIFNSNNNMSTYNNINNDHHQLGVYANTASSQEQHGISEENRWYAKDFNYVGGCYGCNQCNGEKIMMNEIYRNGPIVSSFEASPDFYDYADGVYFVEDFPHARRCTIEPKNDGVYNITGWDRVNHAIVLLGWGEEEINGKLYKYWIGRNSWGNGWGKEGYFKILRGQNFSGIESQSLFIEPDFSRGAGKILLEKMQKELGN

Compared with CCOc1ccc(N(C(C)=O)C2SC(=O)N(c3ccccc3)C2=O)cc1 (stereo not drawn), CCOc1ccc(NC2=CC(=O)CC(c3ccccc3)C2)cc1 (stereo not drawn) is lower in “% Inhibition @ 10 uM” value: 9.94% for the first, 0.673% for the second.

First: Cc1ccc2c(cnn2C(=O)CCC(=O)NCc2ccccc2C)c1
Second: Cc1ccc(C)c(Cn2c(C(=O)O)c(CNCCCc3ccccc3)c3ccccc32)c1
The “% Inhibition @ 10 uM” value of the first is higher: -2.88% for the first, -3.21% for the second.

Compared with COCc1cc(C)nc2sc3c(c12)NC(c1ccccc1Cl)NC3=O (stereo not drawn), CNc1nc(C)c(C(=O)OCc2ccccc2)s1 is lower in “% Inhibition @ 10 uM” value: 1.57% for the first, -1.47% for the second.

First: CCOC(=O)C1=C(C)NC(=O)NC1c1ccc(O)cc1 (stereo not drawn)
Second: CCN(CC)C(=O)c1cc(-c2ccc(O)cc2)on1
The “% Inhibition @ 10 uM” value of the first is higher: -0.128% for the first, -2.74% for the second.

Compared with COC(=O)c1ccc(OCC2c3cc(OC)c(OC)cc3CCN2C(=O)C2CC2)cc1 (stereo not drawn), COc1cc(NC(=O)c2ccc(NC(=O)C(C)C)cc2)c(OC)cc1Cl is higher in “% Inhibition @ 10 uM” value: -1.79% for the first, 1.8% for the second.

Going from CC(C)c1ccc(C2C(C(=O)c3ccccc3)=C(O)C(=O)N2c2nccs2)cc1 (stereo not drawn) to O=C(C1=C(O)C(=O)N(c2ccccc2)C1c1ccc(F)cc1)c1ccccc1 (stereo not drawn), the “% Inhibition @ 10 uM” value falls from 3.58% to -0.28%.

Going from CCOc1ccc(-c2cc(NC(=O)c3ccc(Br)o3)c(C(=O)O)s2)cc1 to COc1ccccc1NC(=O)c1c(C(=O)O)cccc1[N+](=O)[O-], the “% Inhibition @ 10 uM” value falls from 2.84% to -8.77%.

First: COC(=O)CSc1nc2ccccc2s1
Second: CC(C)(C)c1nnc(NC(=O)c2ccccc2O)s1
The “% Inhibition @ 10 uM” value of the first is lower: 3.48% for the first, 16.9% for the second.

Compared with Cc1ccc(-c2csc(Nc3ccc(Cl)cc3)n2)cc1, Clc1ccc(C2=NN(c3ccccc3)C(c3ccc(Cl)cc3)C2)cc1 (stereo not drawn) is higher in “% Inhibition @ 10 uM” value: 0.912% for the first, 5.37% for the second.

First: CC1CCN(S(=O)(=O)c2ccc(S(=O)(=O)N3CCN(c4ncccn4)CC3)cc2)CC1
Second: O=S(=O)(c1c[nH]cn1)N1CCN(c2ccccn2)CC1
The “% Inhibition @ 10 uM” value of the first is higher: -1.15% for the first, -3.61% for the second.

Going from COc1cc(OC)cc(C(=O)NCCn2ccc3ccccc32)c1 to COc1ccc(CCCC(=O)Nc2ccccc2OC)c(C)c1, the “% Inhibition @ 10 uM” value falls from -0.396% to -14.5%.

Going from O=C(Nc1ccn(-c2ccccc2)n1)c1ccc(Cl)cc1 to O=C(Nc1ccccc1)c1ccc(CSc2ccccn2)cc1, the “% Inhibition @ 10 uM” value rises from 1.64% to 3.62%.

First: CC(NC(=O)C(NS(=O)(=O)c1cccc2nsnc12)c1ccccc1)c1ccccc1 (stereo not drawn)
Second: CCC(C)NC(=O)c1ccccc1NS(=O)(=O)c1ccc(NC(C)=O)cc1 (stereo not drawn)
The “% Inhibition @ 10 uM” value of the first is higher: 2% for the first, -0.872% for the second.

Going from Cc1sc2cc(Cl)ccc2[n+]1CCCS(=O)(=O)O to CSc1sc(C(C)=O)c(N)c1-c1ccc(Cl)cc1, the “% Inhibition @ 10 uM” value rises from -3.5% to 1.02%.

First: CCCCc1c(O)n2ccccc2nc1=O
Second: CCCCC1C(=O)NC(=S)N(c2ccccc2)C1=O (stereo not drawn)
The “% Inhibition @ 10 uM” value of the first is lower: 0.716% for the first, 3.76% for the second.

Compared with O=C(NCCSc1ccccn1)c1cccc(Cl)c1, CCN1C(=O)/C(=C\c2ccc(Cl)cc2)N=C1SCC(=O)NCc1ccccc1 is higher in “% Inhibition @ 10 uM” value: -1.81% for the first, 2.68% for the second.

Compared with COC(=O)c1c(C)nn(-c2ccc(F)cc2)c1N, CC(=O)Nc1ccc(/N=C/c2c(C)nn(-c3ccccc3)c2O)cc1 is lower in “% Inhibition @ 10 uM” value: -1.75% for the first, -8.28% for the second.

Compared with N#C/C(=C\c1ccc(Cl)cc1)c1nc(C2CC2)cs1, N#C/C(=C\c1ccccc1)c1nc(-c2ccccc2)cs1 is lower in “% Inhibition @ 10 uM” value: 0.98% for the first, -3.82% for the second.

Compared with O=C(Nc1cc(Cl)c(Cl)cc1Cl)c1ccc([N+](=O)[O-])cc1, O=C(Nc1ccc(F)c(Cl)c1)Nc1ccc(Cl)c(Cl)c1 is higher in “% Inhibition @ 10 uM” value: -1.22% for the first, -0.414% for the second.

Going from O=C(Cc1ccccc1)Nc1c(C(=O)N2CCCCCC2)cnn1-c1ccccc1 to O=C(Cn1ncc2c3ccccc3n(Cc3ccccc3)c2c1=O)NCCC1=CCCCC1, the “% Inhibition @ 10 uM” value rises from -2.13% to 3.4%.

Compared with O=S(=O)(NCC1CCN(Cc2ccco2)CC1)c1ccc(-c2cc(C(F)(F)F)no2)s1, O=C(c1cnn2c(C(F)(F)F)cc(-c3ccc(Br)cc3)nc12)N1CCOCC1 is higher in “% Inhibition @ 10 uM” value: 3.08% for the first, 7.09% for the second.

Compared with O=C1NC(=S)N/C1=C/c1ccc(Br)cc1, C=CCOc1ccc(/C=c2\sc3ncnn3c2=O)cc1 is higher in “% Inhibition @ 10 uM” value: -2.55% for the first, 0.487% for the second.

Going from O=C(c1nn2c(c1Br)NC(c1cccs1)CC2C(F)(F)F)N1CCCCC1 (stereo not drawn) to Cc1nn(C)c(C(=O)N2CCN(C(=O)c3ccco3)CC2)c1Br, the “% Inhibition @ 10 uM” value falls from 1.03% to -4.82%.

First: Cn1c(CN2CCOCC2)nnc1SCc1ccc(Cl)cc1
Second: O=CN1CCN(Cc2ccc(-c3ccc(Cl)cc3)o2)CC1
The “% Inhibition @ 10 uM” value of the first is higher: 4.94% for the first, -3.5% for the second.

Compared with CC(C)C[C@H](NC(=O)c1ccc(Oc2cccc(N(C)C)c2)cc1)C(=O)NCC#N, CC(C)NC(=O)c1ccc(Cn2cc(Cl)cn2)cc1 is higher in “% Inhibition @ 10 uM” value: -5.64% for the first, 0.687% for the second.

Going from COc1ccc(F)cc1S(=O)(=O)n1cc(C)nc1-c1ccccc1 to Cc1ccc(S(=O)(=O)c2nnn(-c3cccc(F)c3)c2N)cc1, the “% Inhibition @ 10 uM” value falls from 1.76% to -7.8%.

Compared with CCc1ccc(CNC(=O)C2CCCN(c3ncnc4onc(C)c34)C2)cc1 (stereo not drawn), Cc1ccc(CNC(=O)C2CCN(S(=O)(=O)c3c(C)noc3/C=C/N(C)C)CC2)cc1 is lower in “% Inhibition @ 10 uM” value: -4.7% for the first, -8.42% for the second.

Going from Cc1ccc(C)c(S(=O)(=O)NCc2ccc(C(=O)Nc3ccc4c(c3)OCCO4)cc2)c1 to Cc1ccc(S(=O)(=O)c2cnc3cc4c(cc3c2O)OCO4)cc1, the “% Inhibition @ 10 uM” value falls from 2.4% to -7.13%.

Going from COc1cccc(/C=C/c2cc(C(F)(F)F)nc(O)n2)c1OC to COc1cccc(C2CC(c3ccc(C)c(C)c3)Nc3ncnn32)c1OC (stereo not drawn), the “% Inhibition @ 10 uM” value rises from -4.97% to -1.48%.

Compared with COc1ccccc1C1C(C#N)=C(N)Oc2[nH]nc(-c3cccs3)c21 (stereo not drawn), COc1ccccc1C(=O)CC1(O)C(=O)Nc2ccc(Br)cc21 (stereo not drawn) is higher in “% Inhibition @ 10 uM” value: 2.38% for the first, 2.44% for the second.

Going from Cc1cccc(C)c1OCC(O)CN1C(C)CCCC1C (stereo not drawn) to Cc1cc(N2CCCCC2C)n2ncnc2n1 (stereo not drawn), the “% Inhibition @ 10 uM” value falls from 8.01% to -0.0108%.

Going from Cc1nn(-c2ccccc2)c2c1C1(C)CC(C)(O2)c2c(C)nn(-c3ccccc3)c2O1 to CC1(C)CC(=O)C2=C(C1)OC(c1ccccc1)=CC2c1ccccc1 (stereo not drawn), the “% Inhibition @ 10 uM” value falls from 3.35% to -5.82%.

First: Cc1c(C(=O)Nc2ccc(Cl)cn2)sc2nc3n(c(=O)c12)CCCCC3
Second: COc1ccc(CNC(=O)CN2C(=O)C3CCCN3c3ncc(Cl)cc32)cc1 (stereo not drawn)
The “% Inhibition @ 10 uM” value of the first is higher: 0.658% for the first, -2.85% for the second.

First: COc1ccc(-c2nc(CS(=O)(=O)CC(=O)NC3CCC(C)CC3)c(C)o2)cc1 (stereo not drawn)
Second: COc1ccc(NC(=O)c2cc(S(=O)(=O)N3CCS(=O)(=O)CC3)ccc2Cl)cc1
The “% Inhibition @ 10 uM” value of the first is lower: -5.58% for the first, -5.57% for the second.

First: O=C(NCc1ccc2c(c1)OCO2)c1cc2c(Cl)ccc3c2n1CCO3
Second: O=C1CCCC2=C1c1ccc3ccccc3c1NC2c1ccc(O)c(O)c1 (stereo not drawn)
The “% Inhibition @ 10 uM” value of the first is lower: 2.15% for the first, 4.32% for the second.

Compared with S=C(NNc1ccccc1)NC12CC3CC(CC(C3)C1)C2, O=C(CSc1ccccc1C(=O)O)NC1CCCCC1 is lower in “% Inhibition @ 10 uM” value: 2.94% for the first, -1.11% for the second.

Going from COCCCN1C(=O)S/C(=C/c2cc(C)n(-c3ccc(OC)cc3)c2C)C1=O to COc1ccc(C2C(C(=O)C(C)(C)C)=C(O)C(=O)N2c2ccc(C)cc2)cc1 (stereo not drawn), the “% Inhibition @ 10 uM” value falls from 0.709% to -5.26%.

Going from COc1ccc(OC)c(CCNC(=O)CN2C(=O)CSc3ncccc32)c1 to CCOc1ccc(CCNC(=O)CCN2N=C(c3ccccc3)CCC2=O)cc1OCC, the “% Inhibition @ 10 uM” value falls from 1.03% to -4.53%.

Going from Cc1cccc(C2NCCc3c2[nH]c2ccccc32)c1 (stereo not drawn) to COc1cc(/C=N/N=C2\CC(c3ccccc3)N=N2)ccc1OCC(=O)O (stereo not drawn), the “% Inhibition @ 10 uM” value falls from -0.446% to -3.36%.

Going from Cc1ccc(CN(CC(=O)N2CCCCCC2)S(=O)(=O)c2ccc(C)cc2)cc1 to CCC(C)NC(=O)Cn1c(=O)n(CC(=O)NCc2ccc(C)cc2)c(=O)c2sccc21 (stereo not drawn), the “% Inhibition @ 10 uM” value rises from -5.27% to -0.591%.

Going from CCCCN(CCCC)C(=O)CCNS(=O)(=O)c1cc(Br)cnc1N to CCCC(=O)Nc1nc2c(s1)C(=O)CC(C)(C)C2, the “% Inhibition @ 10 uM” value falls from 1.96% to -4.12%.

Going from COc1ccc(CCCC(=O)Nc2ccccc2F)cc1 to O=C(NCCOCC(F)(F)C(F)F)C(=O)c1cn(Cc2ccc(F)cc2)c2ccccc12, the “% Inhibition @ 10 uM” value falls from -2.94% to -4.42%.

Going from CCOc1ccc(C2CC(c3cccc(OC)c3OC)n3nnnc3N2)cc1Cl (stereo not drawn) to COc1ccc(CN2CCN(Cc3ccc(OC)c(OC)c3OC)CC2)cc1Br, the “% Inhibition @ 10 uM” value falls from -3.37% to -9.07%.

Going from Cc1cccc(NC(=O)COc2ccc(Cl)cc2C2C3=C(O)CCCC3=NC3=C2C(=O)CCC3)c1 (stereo not drawn) to CC1(C)CC(=O)c2c(O)cc(=O)n(-c3cccc(Cl)c3)c2C1, the “% Inhibition @ 10 uM” value rises from -6.2% to 0.726%.

First: Cn1c(=O)c2c(nc(SCC(N)=O)n2Cc2cccc(Cl)c2)n(C)c1=O
Second: Cc1ccc(-n2nc(C)c3c(C)c(CCC(=O)N4CCC(C(N)=O)CC4)c(C)nc32)cc1C
The “% Inhibition @ 10 uM” value of the first is higher: 0.751% for the first, -4.24% for the second.

First: CC(=O)c1sc(N2C(=O)c3oc4ccc(C)cc4c(=O)c3C2c2ccc(F)cc2)nc1C (stereo not drawn)
Second: O=C(c1ccc(CSc2nc3ccncc3[nH]2)cc1)N1CCN(c2ccccn2)CC1
The “% Inhibition @ 10 uM” value of the first is higher: 3.73% for the first, 1.8% for the second.

First: CC(C)(C)OC(=O)N1CCC(c2c(C(=O)N3CCOCC3)cnn2-c2ccccc2)CC1
Second: CCCS(=O)(=O)N1CCCC(C(=O)N2CCN(c3ccccn3)CC2)C1 (stereo not drawn)
The “% Inhibition @ 10 uM” value of the first is lower: -2.53% for the first, 1.62% for the second.

First: Cc1ccsc1/C=C1\Sc2ccccc2C1=O
Second: CC(CCN1CCN(c2ccccc2)CC1)c1ccccc1 (stereo not drawn)
The “% Inhibition @ 10 uM” value of the first is higher: 3.92% for the first, 1.38% for the second.

Compared with Cc1nc2ccc(NC(=S)N3CC4CC3CC(C)(C)C4C)cc2nc1C (stereo not drawn), COc1ccc(CCn2cnc3sc4c(c3c2=N)CCCC4)cc1OC is lower in “% Inhibition @ 10 uM” value: -1.99% for the first, -7.09% for the second.

In the case of Cc1ccc(-n2c(O)cc(=O)nc2SCc2ccccc2)cc1, the “% Inhibition @ 10 uM” value is reported as 3.62% and -2.36%.
